Results on 25 molecules are retold here after PubChem BioAssay AID1259407 (Chemical Carcinogenesis Research Information System (CCRIS), 2018).

“Also recorded” adds a separate entry of the source. For part of its entries the source gives two or more results. They are shown here; other results are not. The rule behind the calls is not given here. There may be further records. Results that share an entry differ for a reason that is not stated; they may come from other doses, times, organisms or constructs than stated. Brackets tell where a record comes from. A, B and so on number the origins entry by entry. Counts like (3×) give the number of equal values in this list.

This series relates to CCRIS mutagenicity, Ames/micronucleus/aberration tests. In words: CCRIS mutagenicity studies.
The mark [1] stands for this setting: Test System: AMES SALMONELLA TYPHIMURIUM, Strain/Indicator: TA98, Metabolic Activation: NONE, Method: STANDARD PLATE.
The mark [2] stands for this setting: Test System: AMES SALMONELLA TYPHIMURIUM, Strain/Indicator: TA100, Metabolic Activation: NONE, Method: STANDARD PLATE.
Setting [3] is: Test System: MOUSE LYMPHOMA, Strain/Indicator: L5178Y (TK+/TK-), Metabolic Activation: NONE, Method: SUSPENSION/PLATE.
The mark [4] stands for this setting: End Point: IN VITRO CHROMOSOMAL ABERRATIONS, Test System: CHO CELLS, Metabolic Activation: NONE.
Where [5] appears, read: Test System: AMES SALMONELLA TYPHIMURIUM, Strain/Indicator: TA98, Metabolic Activation: NONE, Method: PREINCUBATION
Where [6] appears, read: End Point: IN VITRO CHROMOSOMAL ABERRATIONS, Test System: CHL CELLS, Metabolic Activation: NONE.
The mark [7] stands for this setting: Test System: AMES SALMONELLA TYPHIMURIUM, Strain/Indicator: TA1537, Metabolic Activation: NONE, Method: STANDARD PLATE.

As for `Nc1cccc(Cl)c1`, where the note is “Test System: AMES SALMONELLA TYPHIMURIUM, Strain/Indicator: TA98, Metabolic Activation: HAMSTER, LIVER, S-9, AROCLOR 1254 (10%), Method: PREINCUBATION”, the mutagenic call was “inactive; negative and active; positive”. As to `O=C1C[C@H](O)[C@@H]2c3c(ccc(O)c31)-c1ccc(O)c3c1[C@@]2(O)CCC3=O`, the mutagenic call runs as follows: under setting [1], “inactive; negative [study A] and active; positive [study B]”; under setting [2], “inactive; negative [study A] and active; positive [study B]”. On to `Oc1ccc(/C=C/c2cc(O)cc(O)c2)cc1`, for which, where the note is “End Point: MICRONUCLEUS, Test System: CHINESE HAMSTER LUNG CELLS, Metabolic Activation: NONE”, the mutagenic call was “active; positive and active; positive (aneuploidy)”.

With `COc1cc(NC(C)CCCN)c2ncccc2c1` (stereo not given), the mutagenic call under setting [2] is “inactive; negative [study A] and active; positive [study B]”. For the molecule `Oc1cc(Cl)c(Cl)c(Cl)c1`, the mutagenic call (End Point: IN VITRO CHROMOSOMAL ABERRATIONS, Test System: CHINESE HAMSTER LUNG CELLS (CHL), Metabolic Activation: NONE) was “inactive; negative; also recorded: inactive; negative; authors describe results as equivocal”.

Take `C1O[C@@H]1[C@H]1CO1`: the mutagenic call (End Point: IN VIVO MICRONUCLEUS, Test System: BONE MARROW POLYCHROMATIC ERYTHROCYTES, Species: RAT, Strain/Sex: SPRAGUE-DAWLEY/MALE, Route: IP INJECTION (ONE DOSE)) is “active; positive; also recorded: inactive; negative; also recorded: inactive; negative; significant increase occurred at 30 mg/kg with 48 hr treatment”.

On to `ClC=C(Cl)Cl`, for which the mutagenic call (Test System: AMES SALMONELLA TYPHIMURIUM, Strain/Indicator: TA100, Metabolic Activation: RAT, LIVER, S-9, AROCLOR 1254, Method: VAPOR CHAMBER) was “inactive; negative and active; positive”; the mutagenic call (Test System: AMES SALMONELLA TYPHIMURIUM, Strain/Indicator: TA1535, Metabolic Activation: RAT, LIVER, S-9, AROCLOR 1254, Method: VAPOR CHAMBER) is “inactive; negative and active; positive”. For the molecule `COc1cc(CNC(=O)CCCC/C=C/C(C)C)ccc1O`, the mutagenic call is “inactive; negative [study A] and inactive; negative [study B] and active; positive [study C]” (Test System: AMES SALMONELLA TYPHIMURIUM, Strain/Indicator: TA98, Metabolic Activation: RAT, LIVER, S-9, AROCLOR 1254, Method: STANDARD PLATE); “active; positive [study A] and inactive; negative [study B]” (Test System: AMES SALMONELLA TYPHIMURIUM, Strain/Indicator: TA100, Metabolic Activation: RAT, LIVER, S-9, AROCLOR 1254, Method: STANDARD PLATE); “active; positive and inactive; negative” (Test System: AMES SALMONELLA TYPHIMURIUM, Strain/Indicator: TA100, Metabolic Activation: S-9 (0.5 ML), Method: PREINCUBATION (20 MIN)); “inactive; negative [study A] and active; positive [study B] and inactive; negative [study C]” (Test System: AMES SALMONELLA TYPHIMURIUM, Strain/Indicator: TA1535, Metabolic Activation: RAT, LIVER, S-9, AROCLOR 1254, Method: STANDARD PLATE); “active; positive and inactive; negative” under setting [3]. Turning to `Oc1ccc2ccccc2c1N=Nc1ccccc1`, the mutagenic call is “active; positive [study A]; also recorded: inactive; positive. reevaluation of results: negative [study B]” under setting [3] and “active; positive [study A]; also recorded: active; positive. reevaluation of results: positive [study B]” (Test System: MOUSE LYMPHOMA, Strain/Indicator: L5178Y (TK+/TK-), Metabolic Activation: RAT, LIVER, S-9, AROCLOR 1254, Method: SUSPENSION/PLATE). Turning to `O=C1O[C@H]([C@@H](O)CO)C(O)=C1O`, the mutagenic call under setting [4] was “active; positive; weak response and inactive; negative (2×)”.

Take `O=C(O)C(Br)Br`: the mutagenic call under setting [5] is “active; positive [study A] and inactive; negative [study B] and inactive; negative [study C]”. `Cc1cc(/C=C/c2ccc3cc(N(C)C)ccc3[n+]2C)c(C)n1-c1ccccc1`: the mutagenic call under setting [1] was “inactive; negative (2×) and active; positive”; the mutagenic call under setting [2] was “inactive; negative and active; positive”; the mutagenic call (Test System: AMES SALMONELLA TYPHIMURIUM, Strain/Indicator: TA1538, Metabolic Activation: RAT, LIVER, S-9, AROCLOR 1254, Method: STANDARD PLATE) was “inactive; negative and active; positive”.

As for `Nc1ccccc1`, the mutagenic call reads like this: (End Point: In vivo micronucleus, Test System: Bone marrow erythrocytes, Species: Mouse, Strain/Sex: CRH/Male, Route: Oral) “active; positive at 1,000 mg/kg (p<0.05) and inactive; negative”; (End Point: In vivo micronucleus, Test System: Bone marrow erythrocytes, Species: Rat, Strain/Sex: PVG/Male, Route: Oral) “active; positive, p<0.01 and inactive; negative”. Turning to `Nc1cc(N)cc(C(=O)O)c1`, the mutagenic call under setting [6] is “active; positive (structural changes) and inactive; negative”. In the case of `CCN(CC)C(=S)S`, the mutagenic call under setting [4] is “active; positive [study A] and inactive; negative [study B]”.

As to `CCn1c2ccccc2c2cc(C=O)ccc21`, the mutagenic call under setting [6] was “inactive; negative; also recorded: authors report equivocal results for structural and ploidy changes at the highes”. In the case of `COc1cccc2c1C(=O)c1c(O)c3c(c(O)c1C2=O)C[C@@](O)(C(C)=O)C[C@@H]3O[C@H]1C[C@H](N)[C@H](O)[C@H](C)O1`, the mutagenic call under setting [7] is “inactive; negative [study A] and active; positive [study B]”.

As for `CCN(CC)c1ccc(N=Nc2sc(C=O)c(Cl)c2C#N)c(NC(=O)COC)c1`, the mutagenic call under setting [6] is “active; positive (structural changes); precipitation occurred at all doses; also recorded: active; positive (structural and ploidy changes); precipitation occurred at all doses; also recorded: active; positive (ploidy changes); precipitation occurred at all doses”. Turning to `C=O`, the mutagenic call by setting is: under setting [5], “inactive; negative [study A] and active; positive [study B] and active; positive [study C]”; under setting [2], “active; positive [study A] and inactive; negative [study B] and active; positive [study C]”; (Test System: AMES SALMONELLA TYPHIMURIUM, Strain/Indicator: TA100, Metabolic Activation: RAT, LIVER, S-9, AROCLOR 1254, Method: PREINCUBATION) “active; positive [study A] and inactive; negative [study B]”; (Test System: AMES SALMONELLA TYPHIMURIUM, Strain/Indicator: TA102, Metabolic Activation: NONE, Method: STANDARD PLATE) “active; positive [study A] and active; positive [study B] and inactive; negative [study C]”; (Test System: AMES SALMONELLA TYPHIMURIUM, Strain/Indicator: TA102, Metabolic Activation: RAT, LIVER, S-9, AROCLOR 1254, Method: STANDARD PLATE) “active; positive [study A] and inactive; negative [study B] and inactive; negative [study C]”; under setting [7], “inactive; negative and active; positive”. Moreover, the mutagenic call (Test System: E. COLI, Strain/Indicator: WP2 (PKM101), Metabolic Activation: NONE, Method: STANDARD PLATE) was “active; positive [study A] and inactive; negative [study B] and inactive; negative [study C]”. Consider `B#B`, for which, for the setting “Test System: AMES SALMONELLA TYPHIMURIUM, Strain/Indicator: TA100, Metabolic Activation: NONE, Method: GAS EXPOSURE”, the mutagenic call is “active; positive [study A] and active; positive [study B] and inactive; negative [study B]”.

Turning to `BrCCCCCBr`, the mutagenic call was “inactive; negative and active; positive” (Test System: AMES SALMONELLA TYPHIMURIUM, Strain/Indicator: TA1535, Metabolic Activation: NONE, Method: PREINCUBATION); “inactive; negative and active; positive” (Test System: AMES SALMONELLA TYPHIMURIUM, Strain/Indicator: TA1535, Metabolic Activation: RAT LIVER S-9, PHENOBARBITAL AND BETA-NAPHTHOFLAVONE, Method: PREINCUBATION); “inactive; negative and active; positive” (Test System: E.COLI, Strain/Indicator: WP2UVRA, Metabolic Activation: NONE, Method: PREINCUBATION); “inactive; negative and active; positive” (Test System: E.COLI, Strain/Indicator: WP2UVRA, Metabolic Activation: RAT LIVER S-9, PHENOBARBITAL AND BETA-NAPHTHOFLAVONE, Method: PREINCUBATION). On to `OCc1ccccc1`, for which the mutagenic call under setting [3] is “active; positive (2×) and inactive; negative”. Consider `C[C@@H](CN1CC(=O)NC(=O)C1)N1CC(=O)NC(=O)C1`, for which the mutagenic call reads like this: (Test System: Mouse lymphoma, Strain/Indicator: L5178Y (tk+/tk-), Metabolic Activation: None, Method: Suspension/plate) “active; inconclusive (previous evaluation positive); also recorded: active; positive”; (Test System: Mouse lymphoma, Strain/Indicator: L5178Y (tk+/tk-), Metabolic Activation: Rat, Liver, S-9, Aroclor 1254, Method: Suspension/plate) “inactive; inconclusive (previous evaluation negative); also recorded: active; positive”. Consider `COC(=O)c1ccccc1C(=O)OC`, for which the mutagenic call under setting [2] was “inactive; negative [study A] and active; positive [study B]”.

`[Cl][Sn][Cl]`: the mutagenic call under setting [4] was “active; positive; precipitation occurred at 500 and 750 ug/ml; also recorded: active; positive”.
